Source: the supplement of paper PMC11417369
The list shows a part of the results.

Each sequence was assayed on PfSIP2 AP2 domain 1 (GST-tagged) (assay: gcPBM binding intensity (ln(normalized median fluorescence intensity)); higher = stronger DNA binding).
Method in brief: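 Using an Agilent 4 × 180k array, primer-extended double-stranded 36-bp intergenic genomic probes and negative controls were exposed for 1 h to GST-fused P. falciparum DNA-binding domains expressed in E. coli. Binding was carried out in 1× PBS with 1% milk, 0.2 mg/ml BSA, 0.5% salmon testes DNA and 0.03% Triton X-100, and protein was detected with Alexa488 anti-GST antibody and a 488 nm scan. Binding intensity is the highest Masliner-normalised natural-log median intensity across replicate spots of either probe orientation.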

Row | Sequence | gcPBM binding intensity (ln)
1 | AAATAAAATAAAATAAAATAAAATAAAATAAAATAA [XGTACX_negctrl_site142] | 7.06
2 | TTCTTTGTAGTATATTAACACACAACTGTTTATAAT [CACACA_site9305] | 7.27
3 | CAAATCAAAATTAATTAACACACAATTTTAATATTC [CACACA_site8641] | 6.85
4 | TATAATGTTGATAATAGTACGTATGAGTTCAAAAAA [XGTACX_site988] | 7.2
5 | AAATAGAGAAATACAAGTACATACTAAACCAATCTA [XGTACX_site2780] | 6.78
6 | AAAGGATATAATACCATACACACATTTATAAAATAA [CACACA_site1931] | 6.9
7 | ACTTTTATTCGCTTACGTACATATATTATATATTAT [XGTACX_site4459] | 7.84
8 | AAAAGAAAATATATGTGTACTAAAATATATATATAT [XGTACX_site3817] | 9.22
9 | GTTTATTAAACATTAGTGCAATTTTAATCCATTCTA | 7.56
10 | TTTAAAGTAATAAAGTGTACAAAAATAAATTCAGCT [XGTACX_site8651] | 7.24
11 | TACCTACACTTTTGGAGTACAATTAAAAAAAAAAAA [XGTACX_site1403] | 7.42
12 | TATATATATATATAATGTACAGAAAAAAAAAAAAAA [XGTACX_site6141] | 8.91
13 | TTAATCCTTTTTAAAAGTACACATATATATATATAT [XGTACX_site962] | 9.53
14 | AAATCATGTTGAAGGGGTACAAAATATGTAATGTTG [XGTACX_site6222] | 7.06
15 | ATATTATATATTTGATGTACATTGAATGAGAGAGAA [XGTACX_site3324] | 7.75
16 | ATAATAAATGATAGCACACATATGTACATAAATACA [CACACA_site4634] | 7.36
17 | TATCTTAACAATTAGTGTACAGATAACCAATTAAAA [XGTACX_site3184] | 6.99
18 | AACATATAAAAATGTGCACACACACCCATATATATA [CACACA_site1525] | 9.1
19 | CTTTGTGGTATAGATACACACTATATTAAGATGAAC [CACACA_site5215] | 6.86

Row | Sequence | gcPBM binding intensity (ln)
20 | TAAAATAAAAATATAGTGCACAGATTTTGATATTTT [GTGCAC_site9696] | 9.7
21 | CACATTATGTATCATACACACAAATAGATATATAAC [CACACA_site6434] | 7.11
22 | TGAAGGTTTCAAAAACGTACAAAAAAAAATGTTAGT [XGTACX_site8803] | 7.11
23 | TTTTTTTTTTATGGTACACACACGCGTATGGTTGCA [CACACA_site1876] | 6.99
24 | TTTAGAAATAAATACACACATACATTTTTGTATACA [CACACA_site718] | 6.84
25 | AATAAATATATAAATACACACAAACATACAGATATA [CACACA_site6088] | 6.96
26 | TTTAAAAGATAAAGACTGCACTTTAAGCACACAAAT [GTGCAC_site9752] | 8.74
27 | AATTCCTATAATGAGAGTACGCATTAGAACAGTAGG [XGTACX_site5721] | 7.17
28 | TTGATAAAAAAAAAAAAATAAAAAAAAAATAAAAAA [XGTACX_negctrl_site480] | 6.63
29 | AAATTGTAGAAGCGTATTTCTCGAACTGGATGAATA [CACACA_negctrl_site1373] | 6.87
30 | AATTAATGGAAACAAGTCAAATGATCTTTATGCATA [TGCATGCA_negctrl_site540] | 6.66
31 | TTTATATCGACTCTTCTTTATATAAGTTGTGATGTT [TGCATGCA_negctrl_site362] | 6.81
32 | TAAAGTGTAAAGAAGGTGCTCATTATTTATTTTTTT | 7.62
33 | AGTTTCCTTGAGAAAAGTACGTAATACTACATATAT [XGTACX_site818] | 6.87
34 | TTTATATTAGGTCTTGAACGATTTTCATCATTATTA [TGCATGCA_negctrl_site100] | 6.73
35 | ATATGATATATTTTATGTACATATAAAACATATATA [XGTACX_site4297] | 7.23
36 | TTATACTTTTTTTCTTGGTGTAGAAAAAAAAGTTAG [CACACA_negctrl_site1207] | 7.08
37 | AAAAAAGAAACAAACACACATACATACAAACAAACA [CACACA_site142] | 7.08
38 | AAAATTTAATATAATGCACACATAAAAAAAAATTCA [CACACA_site8640] | 7.09

Row | Sequence | gcPBM binding intensity (ln)
39 | TCCTGCCTCTCTTTGGTGCGTTGTAACCCTCGAGGA | 8.85
40 | ATATTAATATACATATGTACATATATATATATATAT [XGTACX_site7425] | 8.88
41 | TAAATTATTTATAAAGCACACAAGAAAAAATAAAAT [CACACA_site2132] | 7.38
42 | TAAAGGCAAACAAACACACACACATATATACATATA [CACACA_site2123] | 6.86
43 | CCAATACTGTTTAAATGTACAAGTAGGAGGTTAATT [XGTACX_site7260] | 6.95
44 | AAAAATTAACAAAAGGTGCAAACAAATAGTGGTTTT [GTGCAC_site9998] | 10.8
45 | AAAAAAGTAAAAAGTGCATGTAAAATATAAGTATCT [TGCATGCA_site55] | 8.99
46 | TTTTTTTTTTATTTTGCACACTTCTAATTTAGTTGT [CACACA_site3429] | 7.56
47 | GTTATTCTTAATTTTTGTACACATTTTTATATTATT [XGTACX_site7227] | 7.67
48 | ATATATATGTATATGTGTACTTATATTTGTCATTTT [XGTACX_site1317] | 7.11
49 | AAAAAAATTAAACACACACACACATATATATATATA [CACACA_site4718] | 9.42
50 | GAACAAAAGGAATGTTGTACATAAAAAATGAAAAAT [XGTACX_site3929] | 7.04
51 | AAAAAAAAAAAAAAAAGGGGGGGAGGGATTGAAAAA [CACACA_negctrl_site193] | 8.54
52 | ACAGTATTTCGAGATGGTACACATATATATATATAT [XGTACX_site6880] | 9.67
53 | AATGAGGATATATACACACATACATTAAAAAAATAT [CACACA_site1849] | 7.08
54 | ATGAGTTACATGGGAAAAATATATATATATATATAT [CACACA_negctrl_site579] | 9.42
55 | TGATAAATATGGAGCACACACACATAAACATACATA [CACACA_site420] | 7
56 | TTGTTGTATTATTTATGTACATATGTATATGTATAT [XGTACX_site1315] | 7.17
57 | TTTAAAAGATAAAACACACATACTAATAAAAAACAA [CACACA_site2556] | 7.39
